# Results taken from the supplement of paper PMC4604168 (melanoma cell lines).
# The other results are listed elsewhere or left out. Most values come without repeats; read them as rough.
# System: UACC62
# Experiment: cell count relative to DMSO control; melanoma cells; higher = more viable cells
# Settings: library dose: standard library concentration; 72 h
# 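Further: cells treated in 1,536-well plates, then fixed and DAPI-stained, with nuclei counted from automated high-throughput microscope images.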
row,SMILES,cell count [%]
1,"CCCCCCCCc1ccc(CCC(N)(CO)CO)cc1 [fingolimod] + CS(=O)(=O)CCNCc1ccc(-c2ccc3ncnc(Nc4ccc(OCc5cccc(F)c5)c(Cl)c4)c3c2)o1 [lapatinib] (first compound 10 µM, partner dose 4 µM)",10
2,"CC(C)(C)c1cnc(CSc2cnc(NC(=O)C3CCNCC3)s2)o1 + CN(NC(=O)CC(=O)NN(C)C(=S)c1ccccc1)C(=S)c1ccccc1 [STA4783] (first compound 0.05 µM, partner dose 0.03 µM)",30.3
3,"CCCCCCCCc1ccc(CCC(N)(CO)CO)cc1 [fingolimod] + COc1ccc(Cl)c(Nc2nc3ccccc3nc2NS(=O)(=O)c2cccc(NC(=O)C(C)(C)N)c2)c1 [XL147] (first compound 10 µM, partner dose 4 µM)",25
4,"CCCCCCCCc1ccc(CCC(N)(CO)CO)cc1 [fingolimod] + C[C@@H]1CCN(C(=O)CC#N)C[C@@H]1N(C)c1ncnc2[nH]ccc12 [CP690550] (first compound 10 µM, partner dose 5 µM)",11.5
5,"COc1cc2c(Oc3ccc4[nH]c(C)cc4c3F)ncnc2cc1OCCCN1CCCC1 [cediranib] + CCN(CC)CCCCNc1ncc2cc(-c3cc(OC)cc(OC)c3)c(NC(=O)NC(C)(C)C)nc2n1 [PD173074] (first compound 2 µM, partner dose 0.5 µM)",76.7
6,"NC(=O)c1ccc(N(C(N)=O)c2c(F)cccc2F)nc1-c1ccc(F)cc1F + CN(C)S(=O)(=O)c1ccc2c(c1)/C(=C/c1cc3c([nH]1)CCCC3)C(=O)N2 [SU6656] (first compound 2 µM, partner dose 2 µM)",66.2
7,"CCCCCCCCc1ccc(CCC(N)(CO)CO)cc1 [fingolimod] + COCC[n+]1c2c(n(Cc3cnccn3)c1C)C(=O)c1ccccc1C2=O [YM155] (first compound 10 µM, partner dose 0.002 µM)",20.6
8,"CC(C)(C)c1cnc(CSc2cnc(NC(=O)C3CCNCC3)s2)o1 + COc1ccc2c(c1)CCC1C2CCC2(C)C(NCCCCCCN3C(=O)C=CC3=O)CCC12 [U73122] (first compound 0.05 µM, partner dose 2 µM)",94.6
9,"CC(C)(C)c1cnc(CSc2cnc(NC(=O)C3CCNCC3)s2)o1 + COc1ccc(COc2ccc(Cc3cnc(N)nc3N)cc2OC)cc1 [GW2580] (first compound 0.05 µM, partner dose 5 µM)",67.5

# System: WM115
# Experiment: as above
# Settings: library dose: standard library concentration; 72 h
row,SMILES,cell count [%]
1,"COc1cc2c(Oc3ccc4[nH]c(C)cc4c3F)ncnc2cc1OCCCN1CCCC1 [cediranib] + N#Cc1c(O)c2c(-c3ccc(-c4ccccc4O)cc3)csc2[nH]c1=O [A769662] (first compound 2 µM, partner dose 10 µM)",96.6
2,"CC(C)(C)c1cnc(CSc2cnc(NC(=O)C3CCNCC3)s2)o1 + CN(C)S(=O)(=O)c1ccc2c(c1)/C(=C/c1cc3c([nH]1)CCCC3)C(=O)N2 [SU6656] (first compound 0.05 µM, partner dose 2 µM)",56.5
3,"COc1cc2c(Oc3ccc4[nH]c(C)cc4c3F)ncnc2cc1OCCCN1CCCC1 [cediranib] + COc1ccc(COc2ccc(Cc3cnc(N)nc3N)cc2OC)cc1 [GW2580] (first compound 2 µM, partner dose 5 µM)",87.2
4,"CCCCCCCCc1ccc(CCC(N)(CO)CO)cc1 [fingolimod] + OCCn1cc(-c2cnc3nnn(Cc4ccc5ncccc5c4)c3n2)cn1 [PF04217903] (first compound 10 µM, partner dose 5 µM)",27.7
5,"NC(=O)c1ccc(N(C(N)=O)c2c(F)cccc2F)nc1-c1ccc(F)cc1F + Clc1ccc(Nc2nnc(Cc3ccncc3)c3ccccc23)cc1 [vatalanib] (first compound 2 µM, partner dose 10 µM)",89.1
6,"CCc1ccc(CCOc2ccc(CC3SC(=O)NC3=O)cc2)nc1 (stereo not drawn) [pioglitazone] + CC(C)CCN1c2nc(Nc3cc(F)c(O)c(F)c3)ncc2N(C)C(=O)C1C [BID1870] (first compound 10 µM, partner dose 1 µM)",110
7,"Cc1ccc(NC(=O)c2cccc(N(C)C)c2)cc1NC(=O)c1ccc(O)cc1 + CN(C)S(=O)(=O)c1ccc2c(c1)/C(=C/c1cc3c([nH]1)CCCC3)C(=O)N2 [SU6656] (first compound 10 µM, partner dose 2 µM)",46.2
8,"NC(=O)c1ccc(N(C(N)=O)c2c(F)cccc2F)nc1-c1ccc(F)cc1F + Cc1cc(N2CCOCC2)cc2[nH]c(-c3c(NC[C@@H](O)c4cccc(Cl)c4)cc[nH]c3=O)nc12 [BMS536924] (first compound 2 µM, partner dose 1 µM)",123
9,"Cc1ccc(NC(=O)c2cccc(N(C)C)c2)cc1NC(=O)c1ccc(O)cc1 + CCCCCCCCCCCC1=C(O)C(=O)C=C(O)C1=O [Embelin] (first compound 10 µM, partner dose 6 µM)",89.5
10,"CN(NC(=O)CC(=O)NN(C)C(=S)c1ccccc1)C(=S)c1ccccc1 + Cn1cc(/C=C2\C(=O)Nc3cccnc32)c2ccccc21 [GW441756] (first compound 0.03 µM, partner dose 2 µM)",22.6
11,"CCCCCCCCc1ccc(CCC(N)(CO)CO)cc1 [fingolimod] + O=C(O)[C@@H]1[O][Sb](=[O])([O][Sb]2(=[O])[O][C@H]([C@H](O)CO)[C@H](O)[C@H](C(=O)O)[O]2)[O][C@H]([C@H](O)CO)[C@@H]1O [stibogluconate] (first compound 10 µM, partner dose 10 µM)",32.4
12,"Cc1ccc(NC(=O)c2cccc(N(C)C)c2)cc1NC(=O)c1ccc(O)cc1 + COc1cc(N2CCC(N3CCN(C)CC3)CC2)ccc1Nc1ncc(Cl)c(Nc2ccccc2S(=O)(=O)C(C)C)n1 [NVP-TAE684] (first compound 10 µM, partner dose 0.4 µM)",87.6
13,"COc1cc2c(Oc3ccc4[nH]c(C)cc4c3F)ncnc2cc1OCCCN1CCCC1 [cediranib] + COc1cc(N2CCC(N3CCN(C)CC3)CC2)ccc1Nc1ncc(Cl)c(Nc2ccccc2S(=O)(=O)C(C)C)n1 [NVP-TAE684] (first compound 2 µM, partner dose 0.4 µM)",57.7
14,"COc1cc2c(Oc3ccc4[nH]c(C)cc4c3F)ncnc2cc1OCCCN1CCCC1 [cediranib] + Cn1cc(/C=C2\C(=O)Nc3cccnc32)c2ccccc21 [GW441756] (first compound 2 µM, partner dose 2 µM)",76.2
15,"COc1cc2c(Oc3ccc4[nH]c(C)cc4c3F)ncnc2cc1OCCCN1CCCC1 [cediranib] + Oc1cc(-c2nc(-c3ccccc3)[nH]c2-c2ccncc2)ccc1Cl [L779450] (first compound 2 µM, partner dose 1 µM)",40.1
16,"NC(=O)c1ccc(N(C(N)=O)c2c(F)cccc2F)nc1-c1ccc(F)cc1F + Cc1nc(Nc2ncc(C(=O)Nc3c(C)cccc3Cl)s2)cc(N2CCN(CCO)CC2)n1 [dasatanib] (first compound 2 µM, partner dose 0.02 µM)",58.3
17,"CC(C)(C)c1cnc(CSc2cnc(NC(=O)C3CCNCC3)s2)o1 + c1cc(-c2cnn3cc(-c4ccc(OCCN5CCCCC5)cc4)cnc23)ccn1 [Dorsomorphin] (first compound 0.05 µM, partner dose 2 µM)",27.7
18,"CC(C)(C)c1cnc(CSc2cnc(NC(=O)C3CCNCC3)s2)o1 + C[C@@H]1CCN(C(=O)CC#N)C[C@@H]1N(C)c1ncnc2[nH]ccc12 [CP690550] (first compound 0.05 µM, partner dose 5 µM)",80.8
19,"CC(C)(C)c1cnc(CSc2cnc(NC(=O)C3CCNCC3)s2)o1 + Oc1nc(-c2ccc(C(F)(F)F)cc2)nc2c1CSCC2 [XAV939] (first compound 0.05 µM, partner dose 10 µM)",77.7
20,"NC(=O)c1ccc(N(C(N)=O)c2c(F)cccc2F)nc1-c1ccc(F)cc1F + C=C(c1ccc(C(=O)O)cc1)c1cc2c(cc1C)C(C)(C)CCC2(C)C [Bexarotene] (first compound 2 µM, partner dose 10 µM)",104
21,"CCc1ccc(CCOc2ccc(CC3SC(=O)NC3=O)cc2)nc1 (stereo not drawn) [pioglitazone] + N#Cc1c(O)c2c(-c3ccc(-c4ccccc4O)cc3)csc2[nH]c1=O [A769662] (first compound 10 µM, partner dose 10 µM)",85.4
22,"CC(C)(C)c1cnc(CSc2cnc(NC(=O)C3CCNCC3)s2)o1 + Cc1cc([N+](=O)[O-])ccc1NS(=O)(=O)c1cc(Cl)ccc1Cl [FH535] (first compound 0.05 µM, partner dose 5 µM)",88.6
23,"NC(=O)c1ccc(N(C(N)=O)c2c(F)cccc2F)nc1-c1ccc(F)cc1F + CN(c1ncccc1CNc1nc(Nc2ccc3c(c2)CC(=O)N3)ncc1C(F)(F)F)S(C)(=O)=O [PF562271] (first compound 2 µM, partner dose 0.4 µM)",73.2
24,"Cc1ccc(NC(=O)c2cccc(N(C)C)c2)cc1NC(=O)c1ccc(O)cc1 + Cc1cc(N2CCOCC2)cc2[nH]c(-c3c(NC[C@@H](O)c4cccc(Cl)c4)cc[nH]c3=O)nc12 [BMS536924] (first compound 10 µM, partner dose 1 µM)",76.2
